Some of the results follow. Sequences were assembled here from the parent chain. Inactive controls read about 0.05.
B1: TEV protease; numbered along this chain (parent)
chain: MGESLFKGPRDYNPISSSICHLTNESDGHTTSLYGIGFGPFIITNKHLFRRNNGTLVVQSLHGVFKVKDTTTLQQHLVDGRDMIIIRMPKDFPPFPQKLKFREPQREERICLVTTNFQTKSMSSMVSDTSCTFPSGDGIFWKHWIQTKDGQCGSPLVSTRDGFIVGIHSASNFTNTNNYFTSVPKNFMELLTNQEAQQWVSGWRLNADSVLWGGHKVFMVKPEEPFQPVKEATQL

Variants of: B1
Experiment: raw area under fraction-flipped curve 0-4 h after induction (AUC4h, not background-subtracted), DNA-recorder readout of cleavage of the substrate (dimensionless); higher = more cleavage of the substrate by the protease variant
Conditions: temperature: 34 °C; time window: 0-4 h after rhamnose induction
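Further: Bxb1 expression induced with 0.2% (w/v) L-rhamnose at OD600 near 0.5, cultures sampled hourly, flipped fraction per protease–substrate barcode pair counted by paired-end Illumina sequencing.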

Row | Variant | area with substrate ECLYFQS | area with substrate EILYFQS | area with substrate EKLYFQS | area with substrate ESLYFQS | area with substrate ETLYFQS | area with substrate EVLYFQS | area with substrate EYLYFQS | area with substrate EELYFQS | area with substrate EMLYFQS | area with substrate EQLYFQS | area with substrate ERLYFQS | area with substrate EHLYFQS | area with substrate ELLYFQS | area with substrate EWLYFQS | area with substrate EDLYFQS | area with substrate EGLYFQS | area with substrate EFLYFQS | area with substrate EPLYFQS
1 | I110W | 0.0563 | 0.0569 | 0.0665 | 0.0578 | 0.0472 | 0.0612 | 0.0534 |  |  |  |  |  |  |  |  |  |  | 
2 | C111E | 0.1 |  | 0.0958 |  | 0.0836 | 0.0754 |  | 0.0939 | 0.115 | 0.093 | 0.0908 |  |  |  |  |  |  | 
3 | C111Q | 0.0949 |  |  | 0.0996 |  | 0.12 |  |  |  | 0.136 | 0.0963 | 0.0974 | 0.103 | 0.0946 |  |  |  | 
4 | T114S | 0.0795 |  |  |  |  | 0.0922 | 0.112 |  | 0.166 | 0.111 | 0.112 | 0.132 | 0.0881 | 0.131 | 0.109 | 0.111 |  | 
5 | T115H | 0.103 | 0.0979 | 0.1 | 0.0912 |  |  |  |  | 0.114 | 0.121 | 0.103 |  |  |  |  |  | 0.0658 | 
6 | S121N | 0.0895 | 0.131 | 0.0912 | 0.112 |  |  |  |  | 0.119 | 0.127 |  | 0.108 |  |  | 0.127 | 0.103 |  | 0.138
7 | S123L | 0.0952 | 0.094 | 0.106 | 0.107 | 0.121 | 0.0935 | 0.0925 |  | 0.105 | 0.115 | 0.0896 |  | 0.117 |  |  |  |  | 
8 | V126K | 0.116 | 0.104 |  | 0.0929 |  | 0.0963 |  | 0.121 | 0.134 | 0.0976 |  |  | 0.107 | 0.0805 |  |  |  | 0.116
9 | S130A | 0.0874 | 0.0461 | 0.0492 | 0.0897 |  | 0.0899 |  |  |  | 0.122 |  | 0.0548 | 0.0782 |  | 0.141 | 0.0519 |  | 0.11
10 | C131A | 0.0969 |  |  |  | 0.106 |  |  |  |  |  |  |  |  |  |  | 0.0879 |  | 
11 | F133S | 0.122 | 0.109 | 0.0983 | 0.107 |  |  |  |  | 0.106 |  | 0.0705 | 0.107 | 0.103 | 0.089 |  | 0.0869 |  | 
12 | D137M | 0.0932 | 0.0715 | 0.0947 | 0.0938 | 0.11 | 0.0948 | 0.11 | 0.104 | 0.0945 | 0.0959 | 0.102 | 0.113 |  |  | 0.0946 | 0.0999 | 0.102 | 
13 | W141D | 0.0522 | 0.0472 | 0.127 |  |  |  |  | 0.0597 | 0.0509 |  | 0.0524 | 0.0553 |  |  | 0.0579 |  | 0.0714 | 
14 | H143Q | 0.0572 | 0.0627 |  | 0.0563 | 0.0598 | 0.0552 | 0.061 | 0.0677 | 0.065 | 0.0783 | 0.0636 | 0.0621 |  |  |  | 0.0583 |  | 
15 | I145A | 0.14 |  | 0.109 |  |  | 0.11 |  |  |  | 0.174 | 0.113 |  |  |  |  | 0.113 |  | 0.141
16 | I145S | 0.134 | 0.115 | 0.166 | 0.17 | 0.181 | 0.125 |  | 0.163 | 0.144 | 0.137 |  |  |  | 0.139 | 0.165 |  |  | 

Row | Variant | area with substrate ECLYFQS | area with substrate EILYFQS | area with substrate EKLYFQS | area with substrate ESLYFQS | area with substrate ETLYFQS | area with substrate EVLYFQS | area with substrate EYLYFQS | area with substrate EELYFQS | area with substrate EMLYFQS | area with substrate EQLYFQS | area with substrate ERLYFQS | area with substrate EHLYFQS | area with substrate ELLYFQS | area with substrate EWLYFQS | area with substrate EDLYFQS | area with substrate EGLYFQS | area with substrate EFLYFQS | area with substrate EPLYFQS
17 | D149E | 0.0987 | 0.107 |  | 0.0962 | 0.134 | 0.0681 | 0.0667 | 0.12 |  | 0.0883 | 0.0934 |  | 0.0818 | 0.0947 | 0.0951 | 0.0699 |  | 0.144
18 | G150M | 0.0503 | 0.0577 | 0.0223 | 0.0605 |  | 0.0579 | 0.059 | 0.0547 |  |  | 0.0594 | 0.0586 | 0.0518 | 0.0637 |  | 0.0542 |  | 
19 | Q151V | 0.102 | 0.0914 | 0.0894 | 0.0874 | 0.126 | 0.116 | 0.102 |  |  | 0.0954 |  |  |  | 0.0893 | 0.102 | 0.0873 |  | 
20 | G153D | 0.0403 | 0.0158 |  |  | 0.0354 | 0.0449 |  | 0.0573 |  | 0.0374 | 0.0419 |  |  | 0.0512 |  | 0.0237 | 0.0259 | 
21 | L156P | 0.0516 | 0.0345 |  | 0.0562 |  | 0.0411 |  | 0.0445 |  | 0.0537 | 0.0549 |  | 0.0551 | 0.0547 |  | 0.0553 | 0.0462 | 0.0547
22 | V157H | 0.0634 | 0.0476 | 0.0486 | 0.0594 | 0.064 | 0.0599 |  | 0.0605 | 0.0572 | 0.0672 |  | 0.0568 | 0.0579 | 0.064 |  | 0.0509 |  | 0.044
23 | S158K | 0.0613 | 0.0467 | 0.0475 | 0.05 | 0.0451 | 0.0452 | 0.0535 |  | 0.0588 |  | 0.0579 | 0.0572 | 0.0491 | 0.0541 | 0.0412 | 0.0591 |  | 0.0434
24 | S158Q | 0.071 | 0.0457 | 0.0617 | 0.0657 |  | 0.0776 | 0.0359 | 0.15 |  |  |  | 0.0653 |  |  | 0.0601 | 0.0586 |  | 
25 | D161L | 0.057 | 0.0927 |  | 0.0609 |  | 0.043 | 0.0556 | 0.0854 |  | 0.0669 |  |  |  |  | 0.0724 | 0.0612 |  | 0.0752
26 | D161N | 0.0736 | 0.04 | 0.0574 | 0.055 | 0.0848 | 0.0255 |  | 0.0783 | 0.0914 | 0.0842 |  | 0.0828 |  | 0.0679 | 0.0895 | 0.0984 |  | 0.0913
27 | G162Q | 0.134 | 0.0827 | 0.107 | 0.0885 |  | 0.0656 | 0.0687 | 0.099 | 0.117 |  | 0.0874 | 0.0997 | 0.0753 | 0.105 |  | 0.103 | 0.0793 | 
28 | G162T | 0.0877 | 0.085 | 0.0988 | 0.0968 |  | 0.0845 | 0.134 |  | 0.104 | 0.0711 | 0.0958 |  | 0.0856 |  |  |  |  | 0.128
29 | G166H | 0.0517 | 0.0587 | 0.0503 | 0.0515 |  | 0.0524 |  | 0.0462 | 0.0538 | 0.0591 | 0.0491 |  | 0.0402 | 0.0573 |  | 0.0428 | 0.0745 | 0.0615
30 | G166Y | 0.0519 | 0.058 |  | 0.0546 | 0.0456 | 0.0434 |  | 0.0529 | 0.0499 | 0.019 | 0.055 | 0.0521 |  |  |  |  |  | 
31 | S169L | 0.0735 |  |  | 0.042 | 0.0592 | 0.0724 |  |  | 0.029 | 0.051 | 0.0632 |  |  |  |  |  |  | 
32 | A170L | 0.0574 | 0.0662 | 0.0624 |  |  | 0.0494 | 0.0582 |  |  |  |  |  |  |  |  | 0.0686 |  | 0.0825
